The whole screen tested about 45,000 compounds, of which about 65 (0.1%) were called active. Calls come from the whole dose curve; as a rule, active = well fitted activation curve with a large enough effect; inconclusive = small, poorly fitted or top-dose-only effect; inactive = no such curve, though single readings can be large or run the other way. Some of the results follow.
Molecular target: Galactocerebrosidase (Homo sapiens) (UniProt P54803)
Assay: A Novel Cell-Based Assay to Identify Small Molecules for B -Galactocerebrosidase; note: 0% is about no effect; nearly all actives have a fitted effect of over 65% in size
Settings: 145M-Twi-hGALC-G270D cells (Twitcher mouse brain line with human GALC G270D), HMU-beta-Gal fluorescence, 48 h; series mostly up to 57.5 µM; activation: at the top concentration
How it was run: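 Brain-derived Twitcher mouse 145M-Twi cells stably expressing human GALC-G270D or wild-type GALC, treated live, then residual GALC activity read by fluorescence of HMU-b-Gal substrate (0.1 mM final) in citrate-phosphate buffer pH 5.2 with sodium taurocholate. Signal increase indicates enhancement.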

UniProt P54803, sequence (P54803 whole entry, looked up): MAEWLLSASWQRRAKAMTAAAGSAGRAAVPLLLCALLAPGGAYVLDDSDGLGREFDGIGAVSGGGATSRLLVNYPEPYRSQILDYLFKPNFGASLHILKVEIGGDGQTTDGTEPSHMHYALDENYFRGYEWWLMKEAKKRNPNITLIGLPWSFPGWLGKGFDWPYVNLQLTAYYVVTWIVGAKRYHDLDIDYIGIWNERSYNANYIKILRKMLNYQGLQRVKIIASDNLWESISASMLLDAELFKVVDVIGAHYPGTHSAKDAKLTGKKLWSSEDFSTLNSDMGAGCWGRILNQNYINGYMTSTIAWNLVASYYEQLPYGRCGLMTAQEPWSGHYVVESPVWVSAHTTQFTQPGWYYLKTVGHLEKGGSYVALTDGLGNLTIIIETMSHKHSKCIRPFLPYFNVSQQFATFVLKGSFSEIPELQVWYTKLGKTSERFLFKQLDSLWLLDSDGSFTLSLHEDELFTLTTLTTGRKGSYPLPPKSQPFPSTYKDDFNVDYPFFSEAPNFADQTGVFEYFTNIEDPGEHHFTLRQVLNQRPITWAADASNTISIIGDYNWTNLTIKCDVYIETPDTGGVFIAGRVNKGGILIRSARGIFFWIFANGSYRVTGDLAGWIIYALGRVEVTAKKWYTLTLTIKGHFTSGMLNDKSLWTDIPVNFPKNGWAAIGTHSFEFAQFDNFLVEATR

activation, inactive:
CCOc1ccc(NC(=O)CSc2ncc3c(n2)-c2ccccc2N(Cc2ccccc2C)S3(=O)=O)cc1 -10%
CCCn1c2ccccc2c2cnn(CC(=O)N(CCCOC)Cc3ccco3)c(=O)c21 19.1%
Oc1ccccc1-c1nc(/C=C/c2ccc(F)cc2)nn1-c1ccccc1 -13.3%
CC(=O)c1ccc(N2CCN(S(=O)(=O)c3ccc4c(c3)C(C)(C)C(=O)N4)CC2)cc1 -11.7%
COc1cccc(/C=C/C(=O)Nc2ccc3nc(N4CCN(C)CC4)cc(C)c3c2)c1OC -0.199%
CCN1C(C(=O)c2ccccc2)=C(OC(=O)c2ccccc2OC)c2ccccc2S1(=O)=O -12.8%
Cc1cc(C(=O)NCc2ccccc2Cl)c2c(C)nn(-c3ccccc3)c2n1 -10.4%
COc1cc(NC(=O)CSc2ncccc2C(=O)OC(C)C)cc(OC)c1 -16.5%
COc1ccc(CCNC(=O)CS(=O)Cc2nc(-c3ccccc3F)oc2C)cc1OC (stereo not given) -10.7%
CCc1ccc(S(=O)(=O)c2nnn3c2nc(NC(C)C)c2sccc23)cc1 -8.2%
COc1ccc(CCNC(=O)c2ccc3c(c2)ncn3-c2ccc(C)cc2C)cc1OC 5.13%
CC(C)CCNC(=O)CN1C(=O)CSc2ccc(S(=O)(=O)N3CCCCC3)cc21 4.11%
Cc1c(C(=O)N2CCN(c3ccccc3)CC2)sc2nc3n(c(=O)c12)CCC3 -13.7%
COc1cccc(CNC(=O)C2CCN(c3nnc(-n4c(C)ccc4C)s3)CC2)c1OC -2.68%
O=S1(=O)c2ccccc2N(Cc2cccc(Cl)c2)c2ccccc21 -20.6%
CCOc1ccc(-c2nc(CSCC(=O)NCc3ccc(Cl)cc3)c(C)o2)cc1 -3.28%
CCN(CC)CCNC(=O)c1ccc2c(=O)n3nc(Nc4ccccc4OC)sc3nc2c1 3.01%
CC(=O)c1cc2c(cc1N/C(=N/S(=O)(=O)c1ccc(C)cc1)c1ccc(F)cc1)OCO2 -11.9%
CCCc1nc(SCc2cc(=O)c3ccc(C)c(C)c3[nH]2)n[nH]1 3.13%
COc1ccc(S(=O)(=O)N2CCN(Cc3nc4ccc(C)cc4o3)CC2)cc1Cl -35.6%
CCC(C(=O)NCCc1ccccc1)n1nc(C)n2c(cc3sccc32)c1=O (stereo not given) -9.24%
Cc1ccc(NC(=O)c2ccc(-n3c(C)nnc3C)cc2)cc1F -18.8%
CCc1ccccc1NC(=O)C1CCCN(C(=O)c2cnn(-c3ccccc3)c2-n2cccc2)C1 (stereo not given) 0.588%
CCOC(=O)c1c(-c2ccc(C)cc2)csc1NC(=O)c1nc(SC(C)C)ncc1Cl -21%
COc1cc2nc(NCc3ccc(C)cc3)n3nc(-c4ccccc4)nc3c2cc1OC -7.26%
Cc1ccc(NC(=O)CSc2nc3ccccc3nc2N2CCOCC2)cc1 -11.7%
CCOc1ccc(N2CC(NC(=O)c3ccc(S(=O)(=O)N4CCCCC4)cc3)CC2=O)cc1 (stereo not given) 8.59%
Cc1ccc(-c2cc(C(F)(F)F)n3nc(C(=O)NCC45CC6CC(CC(C6)C4)C5)cc3n2)cc1 -5.72%
CCOc1ccccc1NC(=O)c1c(NC(=O)c2cccc(C)c2)sc2c1CCC2 -3.16%
COc1cc(OC)c(NS(=O)(=O)c2ccc3c(c2)CCCN3C(C)=O)cc1Cl -14.9%
CCc1cc2c(cc3c(=O)n(CC(=O)NC4CCC(C)CC4)ncn32)s1 (stereo not given) 2.73%
Cc1ccc(CN(Cc2ccco2)C(=O)c2ccc(OCC(C)C)cc2)cc1 3.49%
COc1ccc(NC(=O)c2c(NC(=O)COc3ccccc3)sc3c2CCC(C(C)(C)C)C3)cc1 (stereo not given) -19.6%
CCCCN1CCc2nc(Nc3ccc(OC)cc3OC)ncc2C1 -5.47%
Cc1nc2sccn2c(=O)c1S(=O)(=O)Nc1cc(Cl)ccc1O -3.89%
CCOC(=O)c1cc(-c2ccc(F)cc2)n(CC(=O)NC2CCCCCC2)c1C -3.46%
Cc1ccc(-n2nc(C)c3c(C)c(CCC(=O)NCc4ccccc4Cl)c(C)nc32)cc1C -10.6%
Cc1cccc(NS(=O)(=O)c2ccc3[nH]c4c(c3c2)CCCCCC4)c1 -5%
CCOc1cccc2c1N[C@@H](c1ccc(C(=O)O)cc1)[C@H]1CC=C[C@@H]21 -16.1%
Cc1ccc(C)c(N2CCN(C(=O)c3cc4c(=O)n(Cc5ccccc5)ccc4nc3C)CC2)c1 -2.43%
Cc1ccc2c(c1)N(C(=O)N1CCC(C(=O)NCCc3ccc(Cl)cc3)CC1)CC(C)O2 (stereo not given) -7.54%
CCCCOc1ccc(C2=NC(c3ccncc3)=Nc3ccc(OCC)cc3N2)cc1 -18.3%
CCOc1ccccc1CNC(=O)C1CCN(c2nnc(-n3c(C)ccc3C)s2)CC1 -14%
O=C(Cn1c(=O)n(CC2CCC(C(=O)NCCc3ccccc3)CC2)c(=O)c2ccccc21)Nc1ccccc1 (stereo not given) 2.08%
COc1ccc2sc(N(Cc3cccnc3)C(=O)C3CCCCC3)nc2c1 -8.95%
CCc1ccc(CNC(=O)Cn2nc(C)n3c(cc4cc(C)ccc43)c2=O)cc1 -18.1%
Cc1cccc(Cn2cccc2CNS(=O)(=O)c2ccccc2F)c1 -9%
CCc1ccc(NC(=O)CN2C(=O)C(c3ccc(C)cc3)=NC23CCCCC3)cc1 -7.64%
COc1ccc(NC(=O)C(Cc2ccccc2)NS(=O)(=O)c2ccc3c(c2)CCC(=O)N3)c(OC)c1 (stereo not given) -5.71%
Cc1ccc(Cn2c(=O)c3ccccc3n3c(-c4cccc(O)c4)nnc23)cc1 -6.68%
O=C(C1CCN(S(=O)(=O)c2cccc3nonc23)CC1)N1CCN(c2cccc(Cl)c2)CC1 -2.62%
COc1ccc(NC(=O)CSc2nc3nc(C)c(Cc4ccccc4)c(C)n3n2)cc1OC -7.19%
CCN(CC)CCOC(=O)c1ccc(NC(=O)Cn2ncc3c2-c2cc(C)ccc2OC3)cc1 -14.3%
Cc1nn(-c2ccc(F)cc2)c(-n2cccc2)c1C(=O)NCCc1ccc(Cl)cc1 -46.2%
Cc1ccc2c(Cl)cc(Cl)c(O)c2n1 -23.6%
CC(C)OCCCn1c(SCC(=O)c2ccccc2)nc2c(sc3ccccc32)c1=O -15.6%
Cc1cc(C)n2nc(CNS(=O)(=O)c3ccc(C)c(C)c3)nc2n1 -13.2%
O=C(Cc1ccc(F)cc1)NCc1ccc2c(c1)CCN2C(=O)c1ccc(F)cc1 -11.7%
O=C(CSc1nnc2ccc3ccccc3n12)Nc1ccccc1Cl -6.65%
Cc1ccc(NS(=O)(=O)c2ccc(-n3cccn3)cc2)cc1Cl 6.5%
CCOC(=O)N1CCc2c(sc3c2c(=O)n(-c2ccccc2C(F)(F)F)c(=O)n3Cc2ccccc2C)C1 0.972%
Cc1ccc(CCNC(=O)c2cc3c(s2)-c2c(C)cccc2OC3)cc1 -22.6%
COc1cccc(CNC(=O)c2ccc(-c3nc(COc4ccccc4)c(C)o3)cc2)c1 -5.19%
Cc1ccc2nc(COc3ccccc3NC(=O)C(C)(C)C)cc(=O)n2c1 -6.75%
O=C(Nc1sc2c(c1C(=O)NCc1cccnc1)CCCC2)c1cc(=O)c2ccccc2o1 25.2%
CCOc1ccc(C2CC(c3c(O)n(C4CCCCC4)c(=O)[nH]c3=O)=Nc3ccccc3S2)cc1 (stereo not given) -12.6%
COc1cccc2c1cc1c(=O)n(CC(=O)NCc3ccc(C)o3)nc(C)n12 -5.57%
COc1cccc(-n2c(SCC(=O)Nc3c(C)cc(C)cc3C)nc3c([nH]c4ccccc43)c2=O)c1 -18.3%
Cc1nn(C(=O)c2cccc(Cl)c2)c(C)c1S(=O)(=O)N1CCOCC1 -35.4%
CCn1c(=O)cc(SCC(=O)NCc2ccc(OC)cc2OC)c2ccccc21 -9.25%
Cc1cccc(-c2nc(CCNC(=O)Cc3ccccc3)cs2)c1 -27.8%
COc1ccc(CCNC(=O)c2ccc3c(c2)N(Cc2ccc(F)cc2)C(=O)CS3)cc1OC -9.1%
O=C(COc1ccc(Cl)cc1)Nc1ccc2nc(SCC(=O)N3CCCC3)sc2c1 -13.6%
COc1ccc(OC)c(NC(=O)CSc2ccc(-c3sc(C)nc3C)nn2)c1 -18.1%
CCOC(=O)c1c(-c2ccccc2)oc2ccc(N(C(C)=O)S(=O)(=O)c3ccc(CC)cc3)cc12 -20.9%
O=C(c1nc(-c2ccc(Cl)cc2)n2c1CCCCC2)N1CCN(c2ccccc2)CC1 -18.5%
O=C(COc1ccccc1-c1nc(-c2ccccc2)no1)Nc1cccc([N+](=O)[O-])c1 -9.04%
OC(CCN1CCCCC1)(c1ccccc1)C1CCCCC1 (stereo not given) -14.8%
CCC(=O)N1CCc2cc(S(=O)(=O)NC(CC(C)C)C(=O)NCCc3ccccc3)ccc21 (stereo not given) -14.7%
COc1ccc(CCNC(=O)C(=O)NCC(c2ccco2)S(=O)(=O)c2cccs2)cc1OC (stereo not given) -7.6%
CCC1=Nc2cc(C(=O)NCCN(CC)CC)ccc2Sc2ccccc21 -17.6%
CCc1nc2cccnc2n1-c1ccc(CC(=O)Nc2cccc(C)c2C)cc1 -50.6%
c1ccc(CN2CCN(c3ncnc4c3cnn4-c3ccccc3)CC2)cc1 -15.5%
CCc1cccc(NC(=O)C2CCC(CNS(=O)(=O)c3ccc(Br)s3)CC2)c1 (stereo not given) -18.3%
Cc1ccc(NC(=O)c2cc(S(=O)(=O)N3CCc4ccccc43)cn2C)c(Cl)c1 -29.7%
Cc1ccccc1OCC(=O)Nc1cccc(C(=O)OCc2cc(=O)n3c(C)csc3n2)c1 -8.23%
COC(=O)c1ccccc1NC(=O)c1cc2cc(C)ccc2n1C -24.5%
CCOc1ccc(-c2c(C)nn3c(C)c(C(=O)NCCc4ccc(Cl)cc4)cnc23)cc1OCC -13%
Cc1ccc(S(=O)(=O)Cc2ccc(C(=O)N3CCN(c4cccc(Cl)c4)CC3)o2)cc1 -10.6%
O=C(Cn1c(=O)n(-c2ccc(Cl)cc2)c(=O)c2sc3ccccc3c21)NC1CCCC1 -12.6%
Cc1ccccc1Cn1c2ccccc2c2cnn(CC(=O)NCc3ccccn3)c(=O)c21 -5.44%
CCSc1ccccc1C(=O)Nc1ccc(-c2nc3ccccc3s2)c(O)c1 -13.6%
Cc1ccc(C)c(N2CCN(C(=O)NCc3noc4ccc(C)cc34)CC2)c1 -14.4%
O=C(NCCc1ccccc1)C1CCC(CNS(=O)(=O)c2ccc(Cl)cc2)CC1 (stereo not given) -9.26%
Cc1ccc(C)c(S(=O)(=O)c2nnn3c2nc(NC2CCCCC2)c2sccc23)c1 -9.09%

Reference: PubChem BioAssay AID1159614 (National Center for Advancing Translational Sciences (NCATS), 2016)
